Results taken from article PMC7288428, “Amaryllidaceae alkaloids with anti-Trypanosoma cruzi activity” (Parasites & Vectors, 2020).
Read-outs that look alike come from different tables or passages of the source.

System: Trypanosoma cruzi Tulahuen strain expressing β-galactosidase
Experiment: microbe, parasite or virus in culture
[1] = Trypanosoma cruzi, TULAHUEN, Vero, 96 h

SMILES: O=C(Cn1ccnc1[N+](=O)[O-])NCc1ccccc1 [BNZ, benznidazole, reference compound]
- IC50 [1]: 1560 nM

SMILES: COC1C=CC23c4cc5c(cc4CN(CC2O)C3C1)OCO5 (centres unmarked) [Haemanthamine, haemanthamine]
- activity against the parasite (active / inactive): active
- IC50 [1]: 1590 nM

SMILES: CC(=O)O[C@@H]1CC=C2CCN3Cc4cc5c(cc4[C@H]1[C@@H]23)OCO5 [1-O-acetylcaranine]
- activity against the parasite (active / inactive): inactive
- IC50 [1]: 35500 nM

SMILES: O[C@H]1[C@H]2c3cc4c(cc3CN3CCC(=C[C@@H]1O)[C@H]23)OCO4 [Lycorine, lycorine]
- activity against the parasite (active / inactive): active
- IC50 [1]: 700 nM

SMILES: CO[C@@H]1C=C[C@@]23c4cc5c(cc4CO[C@]2(O)CN(C)[C@H]3C1)OCO5 [Tazettine, tazettine]
- activity against the parasite (active / inactive): inactive
- IC50 [1]: 83000 nM

SMILES: O=C1N[C@@H]2C(=C[C@H](O)[C@@H](O)[C@H]2O)c2cc3c(c(O)c21)OCO3 [Narciclasine, narciclasine]
- IC50 (anti-T. cruzi phenotypic assay, Vero hosts, 4 days, mean (SD)): 490 nM
- IC50 (anti-T. cruzi phenotypic assay, Vero hosts, 4 days, mean (SD), listed as narciclassine): 495 nM
- activity against the parasite (active / inactive) (phenotypic T. cruzi growth inhibition assay, in words): active

SMILES: O[C@H]1C=C[C@@]23CCN(Cc4cc5c(cc42)OCO5)[C@@H]3C1 [Crinine, crinine]
- activity against the parasite (active / inactive): inactive
- IC50 [1]: 57900 nM

SMILES: CO[C@H]1C=C2[C@H]3C[N@@](Cc4cc5c(cc43)OCO5)[C@H]2C[C@@H]1O [Montanine, montanine]
- activity against the parasite (active / inactive): active
- IC50 [1]: 1990 nM

SMILES: CN1CCC2=C[C@H](O)[C@H]3OC(=O)c4cc5c(cc4[C@H]3[C@@H]21)OCO5 [Hippeastrine, hippeastrine]
- activity against the parasite (active / inactive): active
- IC50 [1]: 3630 nM

SMILES: CN1CC[C@@]23C=C[C@H](O)C[C@@H]2Oc2c(O)ccc(c23)C1 [Sanguinine, sanguinine]
- activity against the parasite (active / inactive): inactive
- IC50 [1]: 213000 nM
